Among all 190,000 compounds or so, about 520 (0.27%) were called active. Inconclusive means that the source gave no clear call. Such entries were picked first, then a sample of the others.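 How the source made its calls: active means GTP binding activity at least 20 points away from the 100% control level, either lower or higher; inconclusive means compound flagged as likely green fluorescent, judged across all proteins; inactive means the rest.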
molecular target: Ras-related C3 botulinum toxin substrate 1 (Homo sapiens) (UniProt P63000); experiment: wildtype Rac1 GTP binding modulators, primary screen, biochemical, GST-Rac1 beads, flow cytometry, multiplex (AID 757); details: fluorescent GTP binding, at 10 µM, actives lie on both sides, 0 = cold GTP competed, 100 = untreated

SMILES	GTP binding activity (% of control)
C=CCNC(=O)c1ccccc1NC(=O)c1ccccc1SC	inconclusive: 93%
O=C(Nc1nc2ccc(Cl)cc2s1)c1ccc(Br)o1	inconclusive: 106%
O=C(NCc1ccccc1)c1ccc2c(c1)C(=O)N(Cc1ccncc1)C2=O	inconclusive: 107%
COc1cc(CNC2CCCC2)cc(Cl)c1OCc1ccccc1F	inconclusive: 102%
O=Nc1c(O)[nH]c2ccc(F)cc12	inactive: 100%
Cc1ccc(OCCn2cnc3cc([N+](=O)[O-])ccc3c2=O)cc1	inactive: 90%
CC(=O)c1cnc(-c2ccccn2)s1	inconclusive: 95%
c1ccc(-n2nnnc2Sc2n[nH]c(-c3ccncc3)n2)cc1	inconclusive: 95%
COC(=O)c1sccc1-c1ccc(C(N)=O)o1	inconclusive: 95%
Cn1cc(C(=O)NC2CCCCC2)c(=O)c2cc(S(=O)(=O)N3CCCC3)ccc21	inconclusive: 109%
CCOc1cc2c(cc1/C=C1/NC(=O)N(CC(=O)OC)C1=O)OCO2	inconclusive: 98%
O=C(COc1cc(O)c2c(=O)cc(-c3ccccc3)oc2c1)c1ccc(F)cc1	inconclusive: 101%
COc1ccc(C(=O)OCC(=O)NC(=O)NC2CCCC2)c(OC)c1	inactive: 101%
COCCNC(=O)c1cc2c(-c3ccc(Cl)cc3)nn(C)c2s1	inconclusive: 95%
O=C(COC(=O)c1cncc(Br)c1)Nc1ccc2c(c1)OCO2	inconclusive: 92%
C/C(=N\NC(=O)c1ccc(Cl)c(S(=O)(=O)Nc2ccccc2Cl)c1)c1ccncc1	active: 73%
O=C(Nc1nnc(-c2cccs2)o1)c1cc(-c2ccccc2)nc2ccccc12	inactive: 95%
FC(F)(F)c1ccc(Cl)c(NC(=S)N/N=C/c2ccccc2C(F)(F)F)c1	inconclusive: 100%
COc1ccc(NC(=O)Cn2cnc3c(nnn3-c3ccc(C)cc3)c2=O)cc1	inactive: 100%
COC(=O)CCC/C=C1\SC[C@@H](NC(=O)c2ccccc2)C1NC(C)=O (some centres undefined)	inactive: 100%
CC(=O)OC(C(=O)n1nc(C)cc1C)c1ccccc1 (centres undefined)	inconclusive: 93%
CS(=O)(=O)Nc1ccccc1C(=O)O	inactive: 105%
CCCCNC(=O)NNC(=O)c1ccc(F)cc1	inconclusive: 104%
COc1cccc(-c2nc3ccc(O)cc3c(=O)o2)c1	inconclusive: 93%

SMILES	GTP binding activity (% of control)
O=C(CCc1nnc(-c2ccc3c(c2)OCO3)o1)N1CCC(c2ccc(F)cc2)C1 (centres undefined)	inactive: 88%
O=C(N/C(=C\c1cccc([N+](=O)[O-])c1)C(=O)N(CCO)CCO)c1ccco1	inactive: 100%
CNC(=S)NNS(=O)(=O)c1ccc(OC)cc1OC	inactive: 100%
Cc1nnc(SCC(=O)N2CCOCC2)c2ccccc12	inconclusive: 78%
NNc1nc(-c2ccccc2)cs1	inconclusive: 103%
O=C(COC(=O)c1ccc(Cl)nc1)Nc1ccccc1OC(F)F	inconclusive: 93%
Clc1ccc(-c2noc(CN3CCCC3)n2)cc1	inconclusive: 110%
Cc1ccc(Cl)cc1N1CCN(Cc2nnnn2Cc2ccco2)CC1	inconclusive: 103%
O=c1ccc(NS(=O)(=O)c2ccccc2)cn1Cc1ccc(Cl)c(Cl)c1	inconclusive: 105%
Cc1cccc(N2CCN(CCNC(=O)c3cc4c(s3)CS(=O)(=O)C4)CC2)c1C	inconclusive: 106%
O=C(Cn1nc(-c2ccccc2)ccc1=O)NCC1CCCO1 (centres undefined)	inconclusive: 93%
CCOC(=O)c1ccc(NC(=S)N(CCCN2CCCCCC2)Cc2ccco2)cc1	inconclusive: 105%
C=CCN1C(=O)/C(=C/C=C2/N(CC)c3ccc(S(=O)(=O)N(C)C)cc3N2CC)SC1=S	inactive: 81%
CCCOc1ccc(Oc2cc(C)nc(SC)n2)nn1	inconclusive: 103%
CCN(CC)c1ccc(/C=C(/C#N)c2nc3ccc(C)cc3[nH]2)c(OC(C)C)c1	inconclusive: 113%
CC(C)(C)C1CCc2onc(C(=O)NC3CCCC3)c2C1 (centres undefined)	inactive: 102%
O=C(CSc1nncs1)NCCCc1ccccc1	inactive: 96%
CCC(=O)NC(=S)NNC(=O)COc1ccc(Br)cc1	inactive: 98%
O=C(CCNC(=O)c1ccccc1)Oc1ccc([N+](=O)[O-])cc1	inconclusive: 102%
COc1ccccc1-c1nnc(SCC(=O)Nc2nc(-c3ccccc3)cs2)n1C	inconclusive: 88%
CCOc1ccc(N(CC(=O)Nc2ccc(OC)cc2)S(=O)(=O)c2c(C)noc2C)cc1	inconclusive: 104%
CCOc1ccc(NC(=O)COc2nsnc2N2CCCCC2)cc1	inconclusive: 104%
Cc1ccccc1C(=O)N1CCN=C1SCc1ccc([N+](=O)[O-])cc1	inactive: 95%
COc1cccc(N=c2oc3ccc(OC)cc3cc2-c2nc3ccccc3[nH]2)c1	inconclusive: 91%

SMILES	GTP binding activity (% of control)
c1ccc(-c2cnc(-c3cccnc3)o2)cc1	inconclusive: 92%
O=C(CSc1nn(-c2ccc(F)cc2)c(=S)s1)NC1CCS(=O)(=O)C1 (centres undefined)	inactive: 104%
CC1CCCC(C)N1C(=O)Cn1c(SCC(=O)NCc2ccc3c(c2)OCO3)nc2ccccc21 (centres undefined)	inconclusive: 100%
O=S(=O)(c1ccc(S(=O)(=O)N2CCOCC2)cc1)N1CCCC1	inactive: 107%
CCOC(=O)CCCCC(=O)c1[nH]c(=O)[nH]c1CSc1nnc2c3cc(Br)ccc3n(C)c2n1	inconclusive: 81%
CC1=C(C(=O)Nc2ccccc2)C(c2cccs2)NC(=O)N1 (centres undefined)	inactive: 104%
O=C(N/N=C/c1ccc(Cl)c([N+](=O)[O-])c1)c1cnccn1	inconclusive: 102%
Cc1ccc(C(=O)Nc2oc(-c3ccccc3)cc2C#N)cc1	inconclusive: 85%
CCOC(=O)c1ccc(NC=C2C(=O)OC3(CCCCC3)OC2=O)cc1	inconclusive: 101%
CCN(CC)S(=O)(=O)c1ccc(OC)c(NC(=O)c2cc(C)on2)c1	inconclusive: 95%
O=c1c2ccccc2nc2ccc(NCc3cccs3)nn12	active: 74%
COc1ccc(CCNC(=O)CSc2ccc(-c3cccs3)nn2)cc1OC	inactive: 98%
COC(=O)c1cc(NC(=O)C2CC(=O)NC(=NCc3ccc(OC)cc3)S2)cc(C(=O)OC)c1 (centres undefined)	inconclusive: 95%
O=C(NCC(=O)N1CCN(S(=O)(=O)/C=C/c2ccccc2)CC1)c1ccccc1F	inactive: 97%
Brc1cc(Br)c2nc(-c3ccc(N4CCOCC4)cc3)ccc2c1	inconclusive: 88%
O=C(NC(Cc1ccccc1)C(=O)O)/C(=C/c1ccco1)NC(=O)c1cccc(Br)c1 (centres undefined)	inconclusive: 94%
O=C(NC1CCCC1)C(c1ccncc1)N(Cc1ccccc1)C(=O)Cc1cccs1 (centres undefined)	inconclusive: 105%
Cc1ccc(OC(=O)c2cc3ccccc3o2)cc1	inconclusive: 104%
Cc1ccc(CN2CCN(/N=C/c3cc(Br)cc(Br)c3O)CC2)c(C)c1	inconclusive: 98%
CCOc1ccc(Oc2ccc(Cl)cc2N)cc1	inactive: 97%
Brc1ccccc1-c1nnc(SCc2nc3ccccc3s2)o1	inconclusive: 94%
CCc1nc2ccccc2n1Cc1ccccc1F	inactive: 88%
Cn1ncc(C#N)c1/N=C/N(Cc1ccccc1)Cc1ccccc1	inconclusive: 102%
O=C(Nc1ccccc1-c1ccccc1)NC1CC2CCCC(C1)N2Cc1ccc(F)cc1 (centres undefined)	inconclusive: 100%

SMILES	GTP binding activity (% of control)
Cc1ccc(C(=O)NN2C(=O)/C(=C/c3cccn3C)SC2=S)cc1	inconclusive: 86%
COc1cccc(-c2csc3nnc(SCC(=O)c4ccc(NC(C)=O)cc4)n23)c1	inconclusive: 108%
Cc1ccc(-c2n[nH]c(=S)c3ccccc23)cc1	inconclusive: 93%
Cc1[nH]c2ccccc2c1/C=C(\C#N)C(=O)NC(C)c1ccccc1 (centres undefined)	inconclusive: 94%
COc1ccc(-c2cc(=O)c3cc(OC)ccc3[nH]2)cc1	inconclusive: 134%
CCC1CCCCN1S(=O)(=O)c1ccc(NC(=O)CSc2ncccc2C(=O)O)cc1 (centres undefined)	inconclusive: 76%
COc1ccccc1C1/C(=C(/O)c2ccccc2)C(=O)C(=O)N1CCO (centres undefined)	inconclusive: 107%
Cc1ccccc1NC(=O)Nc1nnc(Cc2ccc([N+](=O)[O-])cc2)s1	inactive: 102%
O=C(Nc1ccc(N2CCCC2)c(Cl)c1)c1cccs1	inconclusive: 92%
CSc1nc(Cc2ccccc2)cc(=O)[nH]1	active: 127% [activator]
CC(=O)Nc1cccc(C(=O)/C=C/c2ccco2)c1	inconclusive: 106%
O=C(Nc1ccc2c3c(cccc13)CC2)c1ccco1	inconclusive: 106%
Cc1ccc(NC(=O)CSCC(=O)NCCc2ccccn2)c(C)c1	inactive: 98%
CCN(CC)C(=O)CSc1nnnn1-c1ccc(F)c(Cl)c1	inactive: 100%
Cc1ccc(S(=O)(=O)N(C)C)cc1NC(=O)CCNC(=O)c1ccccc1Cl	inactive: 100%
Cc1cccc(-n2c(N)c(C(=O)N3CCN(C)CC3)sc2=S)c1	inconclusive: 93%
S=C(Nc1cccc(Cl)c1)N(CCCN1CCCC1)Cc1cccn1Cc1ccc(Cl)cc1	inconclusive: 107%
COc1cccc(N(CC(=O)N/N=C(\C)c2cccs2)S(C)(=O)=O)c1	inactive: 103%
CC(C)C[C@H](NC(=O)Nc1ccc(S(N)(=O)=O)cc1)C(=O)O	inconclusive: 112%
COc1ccc(OC)c(Nc2nc(-c3sc(N)nc3C)cs2)c1	active: 79%
O=C(Nc1nc(-c2ccc(S(=O)(=O)N3CCCCCC3)cc2)cs1)c1cccs1	inconclusive: 76%
O=C(CCCSc1nc(-c2ccco2)cc(C(F)(F)F)n1)NCc1cccs1	inconclusive: 92%

— PubChem BioAssay AID757 (NMMLSC, 2007)
